# From the supplement of paper PMC10338343
# ± gives the standard deviation. The list shows a part of the results, in another mix than the full data.
# Test system: MIWI (PIWIL1) piRISC loaded with L1MC piRNA (30 nt)
# Assay: pre-steady-state target cleavage rate (min^-1); MIWI and MILI are mouse PIWI proteins and EfPiwi is from a freshwater sponge; tags in brackets are library labels; higher = faster piRNA-guided slicing of the target
# Conditions: guide: L1MC piRNA 5'p-UAACUAAAUACUAUGCAAGCUGUAGGUCCU
# Procedure, shortened: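 Active affinity-purified piRISC carrying one synthetic guide (1 nM) was mixed with a transcribed, DNA-blocked target RNA library […] in HEPES–potassium acetate buffer at 33 °C for 0–8 or 0–960 min, with or without 500 nM GTSF1 partner protein. Uncleaved targets were then sequenced and normalised to depth and to weakly complementary targets. Three trials were pooled, and k3 was capped at 0.0001 min^-1. A burst-and-steady-state fit was applied to obtain the pre-steady-state cleavage rate.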
# [1] = auxiliary factor: 500 nM mouse GTSF1
# [2] = auxiliary factor: none (no GTSF1)
# 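Also: 1 nM active piRISC with 0.1 nM target library at 33 °C single turnover.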
Sequence,pre-steady-state target cleavage rate [1],pre-steady-state target cleavage rate [2]
UCCUCCUACAGCUUGCAUAGUAUUUGGUUA,0.87 ± 0.029,0.034 ± 0.0071
UGGACCUACAGCUUGCAUACUAUUUAGAUA,0.0454 ± 0.0072,0.00776 ± 0.0025
UGGGACCUACAGCUUGCAUAGUAUUUAGUUA,1.11 ± 0.1,0.134 ± 0.033
UCCUGGUUCAGCAUGCAUAGUAUUUAGUUA,0.93 ± 0.036,0.0172 ± 0.0043
UCCACCAACAGCUUGCAUAGUAUUUAGAUA,0.421 ± 0.041,0.022 ± 0.0053
UGCACCUACAGCUUGCAUAGUAUUUACUUA,0.46 ± 0.056,0.0724 ± 0.017
UCCUCCUUGUGCUUGCAUAGUAUUUAGUAA,0.343 ± 0.043,0.0172 ± 0.003
UCCUCCUACAGCUUGCAUAGUAUUUACUUA,0.383 ± 0.042,0.0348 ± 0.0074
UCCUGCUACAGCUGCAUAGUAUUUAGUUA,0.69 ± 0.05,0.00487 ± 0.0021
UGGACCUACAGCUUGCAUAGUAUUUAGAUUA,0.309 ± 0.03,0.0364 ± 0.0056
UCGACCUAGAGCUUGCAUAGUAUUUACUUA,0.37 ± 0.055,0.0185 ± 0.0031
UCCACCUACAGCUUGCAUAGUAUCUAGUUA,0.488 ± 0.039,0.0248 ± 0.0038
UCCUGGAUCACCUUGCAUAGUAAUUAGUUA,0.101 ± 0.022,0.00572 ± 0.0018
UCCUGGAACAGCUUGCAUAGUAUUAAGAUA,0.189 ± 0.028,0.00498 ± 0.0025
UCCACCUACAGCAUGCAUAGUAUUAAGUUA,0.655 ± 0.064,0.00909 ± 0.0019
UCCUGGAACAGCUUGGAUAGAAUUUAGUUA,0.268 ± 0.048,0.0189 ± 0.0064
UCCUCCUACAGCUAUGCAUAGUAUUUAGUUA,0.812 ± 0.032,0.0189 ± 0.0035
AGGACGUACAGGUUGCAUAGUAUUUAGUUA,1.03 ± 0.054,0.0401 ± 0.0057
UCCUCCUACAGCUAGCUUAGUAUUUAGUUA,0.574 ± 0.022,0.0068 ± 0.0019
UGGACCUACACUUGCAUAGUAUUUAGUUA,1.33 ± 0.082,0.045 ± 0.0091

Sequence,pre-steady-state target cleavage rate [1],pre-steady-state target cleavage rate [2]
UCCUGGAUGUCGUUUGCAUAGUAUUUAGUUA,0.469 ± 0.029,0.0231 ± 0.0066
UGGACCUACAGCUUGCAUAGAUUUUAGUUA,0.126 ± 0.012,0.0063 ± 0.0022
UCCUGCUACAGGUUGCAUAGUAUUUAGAUA,0.383 ± 0.083,0.0108 ± 0.0032
UCCUCCUACAGCUUGCAUAGUAUUUUGUAA,0.214 ± 0.034,0.00779 ± 0.0029
UCCUGGUACAGCUUGGCAUAGUAUUUAGUUA,0.676 ± 0.14,0.0102 ± 0.0041
UCCUGGAUGAGCUUGCAUACUAUUUAGUUA,0.219 ± 0.022,0.0242 ± 0.0057
UCCUGCUUCAGCUUGCAUAGUUUUUAGUUA,0.339 ± 0.025,0.0338 ± 0.0073
UCCACCUACACCUAGCAUAGUAUUUAGUUA,0.768 ± 0.051,0.0154 ± 0.003
UCGACCUACAGCAUGCAUAGUAUUAAGUUA,0.964 ± 0.058,0.0103 ± 0.0026
UCCUGGAUCAGCUUGCAUACUAUUAAGUUA,0.101 ± 0.015,0.00664 ± 0.0024
UCGACCUACAGCUUGCAUUGUAUUUUGUUA,0.665 ± 0.031,0.0194 ± 0.0048
AGCUGCUACAGCUUGCAUAGUAUUUAGAAA,0.32 ± 0.068,0.00309 ± 0.0028
UCCUGGAACAGGUUGCAAAGUAUUUAGUUA,0.969 ± 0.055,0.0125 ± 0.003
UCCUGGAACUGCUUGCAAAGUAUUUAGUUA,0.755 ± 0.035,0.0155 ± 0.0042
UCCACCUACAGCUUGGAUAGUAUUUAGUAA,0.747 ± 0.054,0.0244 ± 0.0052
UCCUGGUACUGCUUGCAUAGUAUUUUGUUA,0.153 ± 0.034,0.0218 ± 0.0062
UGGACGAACAGCUUGCAUAGUAUUUAGUAA,0.859 ± 0.067,0.0613 ± 0.012
UCGACCUUCAGCUUGCAUAGUAUUUAGUAA,1.05 ± 0.065,0.043 ± 0.011
UCCUGGAUCAGCUUUGCAUAGUAUUUAGUUA,1.05 ± 0.053,0.0153 ± 0.004
UCCUGGAUGUGCUUGCAUAGUAUUUUGUAA,0.0569 ± 0.016,0.00775 ± 0.0023

Sequence,pre-steady-state target cleavage rate [1],pre-steady-state target cleavage rate [2]
UCGACCUACAGCUUGCAUAGUAUAUAGUUA,1.03 ± 0.051,0.0387 ± 0.0099
UCCUCCUACACCUUGCAAAGUAUUUAGUUA,0.831 ± 0.043,0.0328 ± 0.0065
UGGACCUACUGCUUGGAUAGUAUUUAGUUA,1.65 ± 0.072,0.0542 ± 0.0088
UCGCACCUACAGCUUGCAUAGUAUUUAGUUA,1.06 ± 0.13,0.0648 ± 0.015
AGGACCUACAGCUUGCAUACUAUUUAGUUA,0.451 ± 0.029,0.0411 ± 0.0076
UGGACCUACACCUUGCAUAGUAUUUAGAUA,0.355 ± 0.048,0.0189 ± 0.005
UCCUGGAUGAGCUUGCAUAGUAUUUUCAAA,0.0838 ± 0.029,0.00455 ± 0.0034
UCCUCCUACAGCUUGCAUAGUAUAAAGUUA,0.325 ± 0.028,0.0107 ± 0.0028
AGGACCUACAGCUUGCAUAGUUAUUAGUUA,0.235 ± 0.023,0.0166 ± 0.0039
UCCUCCAACAGCUUGCAUAGUAUUAAGUUA,0.304 ± 0.024,0.0183 ± 0.0026
UCGACCUUCAGCUUGCAUAGAAUUUAGUUA,0.306 ± 0.031,0.0146 ± 0.0037
UCCUGGAUGAGCUUGCAAAGAAUUUAGUUA,0.0445 ± 0.007,0.00657 ± 0.0032
UCCUGGAUCAGCUUGCAAACUAUUUAGUUA,0.0815 ± 0.0098,0.00677 ± 0.003
UCCUGGUAGAGCUUGCAUAGUAUUUAGAAA,0.323 ± 0.049,0.00473 ± 0.0032
UCCUCCUACACCUUGCAUACUAUUUAGUUA,0.306 ± 0.044,0.0212 ± 0.0034
UCCUGGUAGAGCUUGCAUAGUAAUUAGUUA,0.415 ± 0.038,0.0144 ± 0.005
UGGAGCUACAGCUUGCAUAGUAUUUUCAAA,0.25 ± 0.035,0.00487 ± 0.0027
UCCUGGAUGAGCUUGCAUAGUUAUUUAGUUA,0.0115 ± 0.0042,0.00555 ± 0.0031
UCCACCUACAGCUUGCAUAGUAAUUAGAUA,0.242 ± 0.037,0.00588 ± 0.0029
UCCUGGUACAGCUUGCAUAGUAUGUAGUUA,0.135 ± 0.028,0.00992 ± 0.0027
